Some of these densities may be calculated back from excess volumes.
Test: xn = mol fraction of the nth substance listed
Details: 101 kPa

Cn1cc[n+](CCCN)c1.F[B-](F)(F)F + CS(C)=O
mass density [kg/m3]
Details	x1 = 0.1003	x1 = 0.2	x1 = 0.2997	x1 = 0.3997	x1 = 0.4998	x1 = 0.5999	x1 = 0.7001	x1 = 0.8109	x1 = 0.8998	x1 = 1
288.15 K	1180.1	1230.1	1264.3	1290	1308.6	1322.6	1334.5	1345.6	1353.5	1361.9
293.15 K	1175.6	1226	–	–	1304.3	–	1330.6	1341.7	–	1358
298.15 K	–	1221.4	1256	1281.4	1300.1	1314.3	1326.5	1337.8	1345.6	–
303.15 K	1166.7	1217.1	–	1277.3	1296	1310.2	–	–	–	1349.7
308.15 K	1162.1	1212.6	1247.2	1272.8	1291.7	1306.3	1318.8	–	1337.8	–
313.15 K	–	1208	1243	1268.5	1287.6	–	1314.8	–	1334	1341.6
318.15 K	1153.2	1203.7	1238.5	–	1283.4	1298.3	–	1322.4	1330.1	1337.6
323.15 K	1148.5	1199.1	1234.2	1259.7	–	1294.4	1307.1	1318.6	1326.2	–
328.15 K	–	–	1229.8	–	1275	1290.4	1303.2	1314.7	1322.4	1329.4
333.15 K	1140	1190.1	–	1250.9	1270.6	1286.3	1299.3	1310.7	1318.3	1325.4
338.15 K	1135.4	1186	1221	–	1266.7	1282.4	1295.5	–	1314.6	–
343.15 K	–	1181.8	1216.7	1242.4	1262.4	–	1291.6	1303.1	1310.7	1317.3
348.15 K	1126.5	1177.1	1212.3	1238.1	1258.3	1274.5	1287.7	1299.4	1306.9	1313.3
353.15 K	1122.2	1172.8	1207.9	–	1254.3	1270.6	1283.9	1295.8	1302.3	1309.2

CS(C)=O + Cn1cc[n+](CCCN)c1.F[B-](F)(F)F
x2 = 0
Details	mass density [kg/m3]
288.15 K	1105.7
293.15 K	1100.8
298.15 K	1095.7
303.15 K	1090.9
308.15 K	1085.8
313.15 K	1080.7
318.15 K	1075.5
323.15 K	1070.7
333.15 K	1060.6
338.15 K	1055.5
343.15 K	1050.6
348.15 K	1045.6
353.15 K	1040.5

Reference: a compilation of properties of binary mixtures (doi:10.1007/s10953-023-01258-3)
